Measured values: paper PMC12820563
The other results are listed elsewhere or left out. The list includes weakly bound sequences.

Biological target: T1, MBP-FoxP3dN (UniProt Q99JB6)
T1 sequence: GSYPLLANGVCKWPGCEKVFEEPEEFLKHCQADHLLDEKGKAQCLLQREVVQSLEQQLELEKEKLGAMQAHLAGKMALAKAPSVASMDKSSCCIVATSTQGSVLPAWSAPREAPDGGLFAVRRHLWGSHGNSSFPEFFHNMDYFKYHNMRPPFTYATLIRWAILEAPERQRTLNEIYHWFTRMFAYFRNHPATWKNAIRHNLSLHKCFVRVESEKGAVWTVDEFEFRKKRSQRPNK
Experiment: PD-seq (MBP pull-down with sequencing)
Details: 20 mM Tris-HCl pH 7.5, 100 mM NaCl, 1.5 mM MgCl2, 0.4 uM protein, 0.1 uM dsDNA library, 30 min, room temperature, amylose pull-down; high values mean tight binding; double strand, one strand shown

Row | Sequence | binding signal (RPM ratio (pull-down/input))
1 | GATGATTGTTCTCCCAGCTGATGAATTTGGCATATCGAGTAAACAAATTTTCCTAATCTTTCTGTTCAAGCGCCATCTAC | 2.56
2 | GATGATTGTTCTCCCAGCTGATGAATTAACTATCTCGAGTAAACAAATTTTCCTAATCTTTCTGTTCAAGCGCCATCTAC | 0.332
3 | GATGATTGTTCTCCCAGCTGATGAATTCGTAGCGTCGAGTAAACAAATTTTCCTAATCTTTCTGTTCAAGCGCCATCTAC | 0.988
4 | GATGATTGTTCTCCCAGCTGATGAATTTATTGTCTCGAGTAAACAAATTTTCCTAATCTTTCTGTTCAAGCGCCATCTAC | 6.72
5 | GATGATTGTTCTCCCAGCTGATGAATTAAATCTCTCGAGTAAACAAATTTTCCTAATCTTTCTGTTCAAGCGCCATCTAC | 0.29
6 | GATGATTGTTCTCCCAGCTGATGAATTGGCCCGGTCGAGTAAACAAATTTTCCTAATCTTTCTGTTCAAGCGCCATCTAC | 0.201
7 | GATGATTGTTCTCCCAGCTGATGAATTAATCTAATCGAGTAAACAAATTTTCCTAATCTTTCTGTTCAAGCGCCATCTAC | 0.272
8 | GATGATTGTTCTCCCAGCTGATGAATTAAGGCAATCGAGTAAACAAATTTTCCTAATCTTTCTGTTCAAGCGCCATCTAC | 2.02
9 | GATGATTGTTCTCCCAGCTGATGAATTATGCATCTCGAGTAAACAAATTTTCCTAATCTTTCTGTTCAAGCGCCATCTAC | 7.47
10 | GATGATTGTTCTCCCAGCTGATGAATTGCCAGCCTCGAGTAAACAAATTTTCCTAATCTTTCTGTTCAAGCGCCATCTAC | 0.644
11 | GATGATTGTTCTCCCAGCTGATGAATTCCCGGACTCGAGTAAACAAATTTTCCTAATCTTTCTGTTCAAGCGCCATCTAC | 0.164
12 | GATGATTGTTCTCCCAGCTGATGAATTGCCGGAATCGAGTAAACAAATTTTCCTAATCTTTCTGTTCAAGCGCCATCTAC | 0.356
13 | GATGATTGTTCTCCCAGCTGATGAATTTATCGCATCGAGTAAACAAATTTTCCTAATCTTTCTGTTCAAGCGCCATCTAC | 1.55
14 | GATGATTGTTCTCCCAGCTGATGAATTATATTTTTCGAGTAAACAAATTTTCCTAATCTTTCTGTTCAAGCGCCATCTAC | 2.87
15 | GATGATTGTTCTCCCAGCTGATGAATTCAGTAAGTCGAGTAAACAAATTTTCCTAATCTTTCTGTTCAAGCGCCATCTAC | 0.414
16 | GATGATTGTTCTCCCAGCTGATGAATTTGGCGATTCGAGTAAACAAATTTTCCTAATCTTTCTGTTCAAGCGCCATCTAC | 1.21
17 | GATGATTGTTCTCCCAGCTGATGAATTGGTGTTTTCGAGTAAACAAATTTTCCTAATCTTTCTGTTCAAGCGCCATCTAC | 2.17
18 | GATGATTGTTCTCCCAGCTGATGAATTATGTATTTCGAGTAAACAAATTTTCCTAATCTTTCTGTTCAAGCGCCATCTAC | 4.76
19 | GATGATTGTTCTCCCAGCTGATGAATTGGGCGAGTCGAGTAAACAAATTTTCCTAATCTTTCTGTTCAAGCGCCATCTAC | 0.613
20 | GATGATTGTTCTCCCAGCTGATGAATTTAGGCGCTCGAGTAAACAAATTTTCCTAATCTTTCTGTTCAAGCGCCATCTAC | 0.736

Row | Sequence | binding signal (RPM ratio (pull-down/input))
21 | GATGATTGTTCTCCCAGCTGATGAATTTTCCGGCTCGAGTAAACAAATTTTCCTAATCTTTCTGTTCAAGCGCCATCTAC | 0.18
22 | GATGATTGTTCTCCCAGCTGATGAATTCAGTGTATCGAGTAAACAAATTTTCCTAATCTTTCTGTTCAAGCGCCATCTAC | 2.25
23 | GATGATTGTTCTCCCAGCTGATGAATTAATTAGATCGAGTAAACAAATTTTCCTAATCTTTCTGTTCAAGCGCCATCTAC | 0.42
24 | GATGATTGTTCTCCCAGCTGATGAATTCGAAAATTCGAGTAAACAAATTTTCCTAATCTTTCTGTTCAAGCGCCATCTAC | 0.238
25 | GATGATTGTTCTCCCAGCTGATGAATTGTACACCTCGAGTAAACAAATTTTCCTAATCTTTCTGTTCAAGCGCCATCTAC | 0.663
26 | GATGATTGTTCTCCCAGCTGATGAATTAACCTCTTCGAGTAAACAAATTTTCCTAATCTTTCTGTTCAAGCGCCATCTAC | 0.239
27 | GATGATTGTTCTCCCAGCTGATGAATTTCCTTGATCGAGTAAACAAATTTTCCTAATCTTTCTGTTCAAGCGCCATCTAC | 0.223
28 | GATGATTGTTCTCCCAGCTGATGAATTCATGTACTCGAGTAAACAAATTTTCCTAATCTTTCTGTTCAAGCGCCATCTAC | 1.55
29 | GATGATTGTTCTCCCAGCTGATGAATTAACAGCATCGAGTAAACAAATTTTCCTAATCTTTCTGTTCAAGCGCCATCTAC | 0.978
30 | GATGATTGTTCTCCCAGCTGATGAATTTCTCGGCTCGAGTAAACAAATTTTCCTAATCTTTCTGTTCAAGCGCCATCTAC | 0.178
31 | GATGATTGTTCTCCCAGCTGATGAATTTGGGCAATCGAGTAAACAAATTTTCCTAATCTTTCTGTTCAAGCGCCATCTAC | 1.78
32 | GATGATTGTTCTCCCAGCTGATGAATTCAAAACCTCGAGTAAACAAATTTTCCTAATCTTTCTGTTCAAGCGCCATCTAC | 0.276
33 | GATGATTGTTCTCCCAGCTGATGAATTAACACACTCGAGTAAACAAATTTTCCTAATCTTTCTGTTCAAGCGCCATCTAC | 0.554
34 | GATGATTGTTCTCCCAGCTGATGAATTTGTGCGCTCGAGTAAACAAATTTTCCTAATCTTTCTGTTCAAGCGCCATCTAC | 1.87
35 | GATGATTGTTCTCCCAGCTGATGAATTGGCAGGGTCGAGTAAACAAATTTTCCTAATCTTTCTGTTCAAGCGCCATCTAC | 0.278
36 | GATGATTGTTCTCCCAGCTGATGAATTTAAAACTTCGAGTAAACAAATTTTCCTAATCTTTCTGTTCAAGCGCCATCTAC | 0.206
37 | GATGATTGTTCTCCCAGCTGATGAATTTCCATGATCGAGTAAACAAATTTTCCTAATCTTTCTGTTCAAGCGCCATCTAC | 0.271
38 | GATGATTGTTCTCCCAGCTGATGAATTGCAGATATCGAGTAAACAAATTTTCCTAATCTTTCTGTTCAAGCGCCATCTAC | 0.744
39 | GATGATTGTTCTCCCAGCTGATGAATTCAGGTTGTCGAGTAAACAAATTTTCCTAATCTTTCTGTTCAAGCGCCATCTAC | 0.849
40 | GATGATTGTTCTCCCAGCTGATGAATTCTCTCTTTCGAGTAAACAAATTTTCCTAATCTTTCTGTTCAAGCGCCATCTAC | 0.263
